The other results are listed elsewhere or left out. The full chains were built here from the parent and the listed change. Inactive controls read about 0.05.
B1: TEV protease; numbered along this chain (parent)
chain: MGESLFKGPRDYNPISSSICHLTNESDGHTTSLYGIGFGPFIITNKHLFRRNNGTLVVQSLHGVFKVKDTTTLQQHLVDGRDMIIIRMPKDFPPFPQKLKFREPQREERICLVTTNFQTKSMSSMVSDTSCTFPSGDGIFWKHWIQTKDGQCGSPLVSTRDGFIVGIHSASNFTNTNNYFTSVPKNFMELLTNQEAQQWVSGWRLNADSVLWGGHKVFMVKPEEPFQPVKEATQL

Variants of: B1
Assay: raw area under fraction-flipped curve 0-4 h after induction (AUC4h, not background-subtracted), DNA-recorder readout of cleavage of the substrate (dimensionless); higher = more cleavage of the substrate by the protease variant
Conditions: temperature: 34 °C; time window: 0-4 h after rhamnose induction
Method: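 In vivo DNA recorder in E. coli TOP10(DE3) ΔrhaA at 34 °C. Each TEVp single-site mutant (parent TEVp 0) is paired with a single-site variant of the 7-mer TEVs (canonical ENLYFQ|S). The substrate sits between flexible linkers in a Bxb1-sfGFP-TEVs-SsrA fusion, so cleavage stabilises Bxb1 and speeds flipping of a recombination array, read by NGS. The value is the raw area under the fraction-flipped curve over 0-4 h after rhamnose induction (AUC4h), with ≥20 reads per time point. It is not background-subtracted; inactive controls average about 0.047.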
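Note: Bxb1 expression induced with 0.2% (w/v) L-rhamnose at OD600 near 0.5, cultures sampled hourly, flipped fraction per protease–substrate barcode pair counted by paired-end Illumina sequencing.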

For S121M, the “area with substrate ENLAFQS” value was 0.0698, the “area with substrate ENLCFQS” value was 0.0729 and the “area with substrate ENLDFQS” value was 0.0626. For the same variant, the “area with substrate ENLEFQS” value was 0.0607, the “area with substrate ENLFFQS” value was 0.0759 and the “area with substrate ENLHFQS” value was 0.0784. The “area with substrate ENLIFQS” value was 0.076, the “area with substrate ENLKFQS” value was 0.0748 and the “area with substrate ENLLFQS” value was 0.0754. For the same variant, the “area with substrate ENLNFQS” value was 0.0638, the “area with substrate ENLPFQS” value was 0.0719 and the “area with substrate ENLQFQS” value was 0.0739. The “area with substrate ENLRFQS” value was 0.0871, the “area with substrate ENLSFQS” value was 0.0628 and the “area with substrate ENLTFQS” value was 0.0673. For the same variant, the “area with substrate ENLVFQS” value was 0.0687.

With S121H the “area with substrate ENLAFQS” value was 0.0775, the “area with substrate ENLDFQS” value was 0.0625 and the “area with substrate ENLEFQS” value was 0.0628. The “area with substrate ENLFFQS” value was 0.0916, the “area with substrate ENLHFQS” value was 0.0684 and the “area with substrate ENLIFQS” value was 0.0872. The “area with substrate ENLKFQS” value was 0.0913, the “area with substrate ENLLFQS” value was 0.0742 and the “area with substrate ENLMFQS” value was 0.0818. For the same variant, the “area with substrate ENLNFQS” value was 0.0528, the “area with substrate ENLPFQS” value was 0.0611 and the “area with substrate ENLRFQS” value was 0.0692. For the same variant, the “area with substrate ENLSFQS” value was 0.0609 and the “area with substrate ENLVFQS” value was 0.106.

In the case of S171F, the “area with substrate ENLAFQS” value is reported as 0.0621, the “area with substrate ENLCFQS” value is reported as 0.0595 and the “area with substrate ENLDFQS” value is reported as 0.0615. For the same variant, the “area with substrate ENLFFQS” value was 0.0572, the “area with substrate ENLGFQS” value was 0.105 and the “area with substrate ENLHFQS” value was 0.0602. For the same variant, the “area with substrate ENLKFQS” value was 0.0641, the “area with substrate ENLLFQS” value was 0.0478 and the “area with substrate ENLMFQS” value was 0.0856. The “area with substrate ENLNFQS” value was 0.051 and the “area with substrate ENLPFQS” value was 0.0503.

In the case of S171M, the “area with substrate ENLAFQS” value is reported as 0.0771, the “area with substrate ENLFFQS” value is reported as 0.0455 and the “area with substrate ENLHFQS” value is reported as 0.0527. The “area with substrate ENLIFQS” value was 0.0638, the “area with substrate ENLKFQS” value was 0.0695 and the “area with substrate ENLLFQS” value was 0.0612. The “area with substrate ENLMFQS” value was 0.0674, the “area with substrate ENLNFQS” value was 0.0485 and the “area with substrate ENLQFQS” value was 0.0479. The “area with substrate ENLRFQS” value was 0.0567, the “area with substrate ENLSFQS” value was 0.0793 and the “area with substrate ENLTFQS” value was 0.0716. For the same variant, the “area with substrate ENLVFQS” value was 0.0825 and the “area with substrate ENLWFQS” value was 0.067.

In the case of S171L, the “area with substrate ENLAFQS” value is reported as 0.0616, the “area with substrate ENLDFQS” value is reported as 0.0695 and the “area with substrate ENLEFQS” value is reported as 0.0708. For the same variant, the “area with substrate ENLFFQS” value was 0.06, the “area with substrate ENLHFQS” value was 0.0489 and the “area with substrate ENLIFQS” value was 0.0601. The “area with substrate ENLKFQS” value was 0.0598, the “area with substrate ENLNFQS” value was 0.0623 and the “area with substrate ENLPFQS” value was 0.0491. For the same variant, the “area with substrate ENLQFQS” value was 0.0579 and the “area with substrate ENLRFQS” value was 0.0528.

In the case of I145K, the “area with substrate ENLAFQS” value is reported as 0.0623, the “area with substrate ENLCFQS” value is reported as 0.0627 and the “area with substrate ENLDFQS” value is reported as 0.0577. The “area with substrate ENLEFQS” value was 0.0701, the “area with substrate ENLHFQS” value was 0.055 and the “area with substrate ENLIFQS” value was 0.0662. For the same variant, the “area with substrate ENLNFQS” value was 0.056, the “area with substrate ENLPFQS” value was 0.0476 and the “area with substrate ENLRFQS” value was 0.057. For the same variant, the “area with substrate ENLSFQS” value was 0.0556.

In the case of T147Q, the “area with substrate ENLAFQS” value is reported as 0.0574, the “area with substrate ENLCFQS” value is reported as 0.0629 and the “area with substrate ENLDFQS” value is reported as 0.066. The “area with substrate ENLEFQS” value was 0.0644, the “area with substrate ENLFFQS” value was 0.0607 and the “area with substrate ENLGFQS” value was 0.0715. For the same variant, the “area with substrate ENLHFQS” value was 0.0467, the “area with substrate ENLIFQS” value was 0.0648 and the “area with substrate ENLMFQS” value was 0.072. For the same variant, the “area with substrate ENLNFQS” value was 0.0616, the “area with substrate ENLPFQS” value was 0.0652 and the “area with substrate ENLQFQS” value was 0.0571. The “area with substrate ENLRFQS” value was 0.0635, the “area with substrate ENLSFQS” value was 0.0621 and the “area with substrate ENLTFQS” value was 0.06. The “area with substrate ENLVFQS” value was 0.0746 and the “area with substrate ENLWFQS” value was 0.0622.

For D161A, the “area with substrate ENLAFQS” value was 0.0648, the “area with substrate ENLCFQS” value was 0.0554 and the “area with substrate ENLDFQS” value was 0.0592. For the same variant, the “area with substrate ENLEFQS” value was 0.0591, the “area with substrate ENLFFQS” value was 0.0665 and the “area with substrate ENLHFQS” value was 0.0609. For the same variant, the “area with substrate ENLIFQS” value was 0.0592, the “area with substrate ENLKFQS” value was 0.0603 and the “area with substrate ENLNFQS” value was 0.0587. For the same variant, the “area with substrate ENLPFQS” value was 0.0504, the “area with substrate ENLRFQS” value was 0.0695 and the “area with substrate ENLSFQS” value was 0.0607. For the same variant, the “area with substrate ENLVFQS” value was 0.0655.

With D161W the “area with substrate ENLAFQS” value was 0.044, the “area with substrate ENLCFQS” value was 0.054 and the “area with substrate ENLDFQS” value was 0.0483. For the same variant, the “area with substrate ENLEFQS” value was 0.0429, the “area with substrate ENLFFQS” value was 0.0653 and the “area with substrate ENLHFQS” value was 0.051. For the same variant, the “area with substrate ENLIFQS” value was 0.046, the “area with substrate ENLKFQS” value was 0.0517 and the “area with substrate ENLLFQS” value was 0.0671. The “area with substrate ENLNFQS” value was 0.0484, the “area with substrate ENLPFQS” value was 0.0536 and the “area with substrate ENLQFQS” value was 0.0509. For the same variant, the “area with substrate ENLRFQS” value was 0.0423, the “area with substrate ENLSFQS” value was 0.053 and the “area with substrate ENLTFQS” value was 0.0319. For the same variant, the “area with substrate ENLVFQS” value was 0.0382 and the “area with substrate ENLWFQS” value was 0.0516.

In the case of T114Y, the “area with substrate ENLAFQS” value is reported as 0.059, the “area with substrate ENLDFQS” value is reported as 0.0676 and the “area with substrate ENLFFQS” value is reported as 0.0824. For the same variant, the “area with substrate ENLGFQS” value was 0.0743, the “area with substrate ENLIFQS” value was 0.0844 and the “area with substrate ENLKFQS” value was 0.072. The “area with substrate ENLLFQS” value was 0.0825, the “area with substrate ENLMFQS” value was 0.0681 and the “area with substrate ENLNFQS” value was 0.0618. For the same variant, the “area with substrate ENLQFQS” value was 0.0694 and the “area with substrate ENLRFQS” value was 0.0739.

With S169M the “area with substrate ENLAFQS” value was 0.0693, the “area with substrate ENLCFQS” value was 0.0605 and the “area with substrate ENLDFQS” value was 0.0621. The “area with substrate ENLEFQS” value was 0.0645, the “area with substrate ENLFFQS” value was 0.0684 and the “area with substrate ENLGFQS” value was 0.0924. The “area with substrate ENLHFQS” value was 0.0653, the “area with substrate ENLIFQS” value was 0.0629 and the “area with substrate ENLKFQS” value was 0.0706. The “area with substrate ENLLFQS” value was 0.0708, the “area with substrate ENLNFQS” value was 0.0689 and the “area with substrate ENLPFQS” value was 0.056. The “area with substrate ENLQFQS” value was 0.0571, the “area with substrate ENLRFQS” value was 0.0678 and the “area with substrate ENLSFQS” value was 0.0634. The “area with substrate ENLTFQS” value was 0.0642 and the “area with substrate ENLVFQS” value was 0.0623.

For P155K, the “area with substrate ENLAFQS” value was 0.0656, the “area with substrate ENLCFQS” value was 0.0492 and the “area with substrate ENLDFQS” value was 0.0539. For the same variant, the “area with substrate ENLEFQS” value was 0.0549, the “area with substrate ENLFFQS” value was 0.0549 and the “area with substrate ENLHFQS” value was 0.0694. For the same variant, the “area with substrate ENLIFQS” value was 0.0691, the “area with substrate ENLKFQS” value was 0.0519 and the “area with substrate ENLMFQS” value was 0.0855. For the same variant, the “area with substrate ENLNFQS” value was 0.0423, the “area with substrate ENLPFQS” value was 0.0545 and the “area with substrate ENLQFQS” value was 0.0618. For the same variant, the “area with substrate ENLRFQS” value was 0.062.

With T176K the “area with substrate ENLAFQS” value was 0.0572, the “area with substrate ENLDFQS” value was 0.0629 and the “area with substrate ENLFFQS” value was 0.0677. For the same variant, the “area with substrate ENLGFQS” value was 0.0727, the “area with substrate ENLHFQS” value was 0.0603 and the “area with substrate ENLIFQS” value was 0.0652. The “area with substrate ENLKFQS” value was 0.0547, the “area with substrate ENLMFQS” value was 0.0747 and the “area with substrate ENLPFQS” value was 0.0611. The “area with substrate ENLQFQS” value was 0.0745, the “area with substrate ENLRFQS” value was 0.0712 and the “area with substrate ENLSFQS” value was 0.0564. For the same variant, the “area with substrate ENLWFQS” value was 0.0678.

— the supplement of paper PMC12217912
